Test results from paper PMC4336329 (PLoS ONE, 2015).
In all, about 310,000 compounds went through this assay and about 14,000 (4.5%) showed an effect of 50% or more. Effects have a minus sign here. The list shows a part of the results.

Biological target: human ether-à-go-go-related gene (hERG) potassium channel (human, UniProt Q12809)
Assay: primary screen, population patch clamp on CHO cells stably expressing hERG
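Also: peak tail current of the secondary pulse compared with the same well before compound.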

Chain of human ether-à-go-go-related gene (hERG) potassium channel (Q12809 whole entry, looked up): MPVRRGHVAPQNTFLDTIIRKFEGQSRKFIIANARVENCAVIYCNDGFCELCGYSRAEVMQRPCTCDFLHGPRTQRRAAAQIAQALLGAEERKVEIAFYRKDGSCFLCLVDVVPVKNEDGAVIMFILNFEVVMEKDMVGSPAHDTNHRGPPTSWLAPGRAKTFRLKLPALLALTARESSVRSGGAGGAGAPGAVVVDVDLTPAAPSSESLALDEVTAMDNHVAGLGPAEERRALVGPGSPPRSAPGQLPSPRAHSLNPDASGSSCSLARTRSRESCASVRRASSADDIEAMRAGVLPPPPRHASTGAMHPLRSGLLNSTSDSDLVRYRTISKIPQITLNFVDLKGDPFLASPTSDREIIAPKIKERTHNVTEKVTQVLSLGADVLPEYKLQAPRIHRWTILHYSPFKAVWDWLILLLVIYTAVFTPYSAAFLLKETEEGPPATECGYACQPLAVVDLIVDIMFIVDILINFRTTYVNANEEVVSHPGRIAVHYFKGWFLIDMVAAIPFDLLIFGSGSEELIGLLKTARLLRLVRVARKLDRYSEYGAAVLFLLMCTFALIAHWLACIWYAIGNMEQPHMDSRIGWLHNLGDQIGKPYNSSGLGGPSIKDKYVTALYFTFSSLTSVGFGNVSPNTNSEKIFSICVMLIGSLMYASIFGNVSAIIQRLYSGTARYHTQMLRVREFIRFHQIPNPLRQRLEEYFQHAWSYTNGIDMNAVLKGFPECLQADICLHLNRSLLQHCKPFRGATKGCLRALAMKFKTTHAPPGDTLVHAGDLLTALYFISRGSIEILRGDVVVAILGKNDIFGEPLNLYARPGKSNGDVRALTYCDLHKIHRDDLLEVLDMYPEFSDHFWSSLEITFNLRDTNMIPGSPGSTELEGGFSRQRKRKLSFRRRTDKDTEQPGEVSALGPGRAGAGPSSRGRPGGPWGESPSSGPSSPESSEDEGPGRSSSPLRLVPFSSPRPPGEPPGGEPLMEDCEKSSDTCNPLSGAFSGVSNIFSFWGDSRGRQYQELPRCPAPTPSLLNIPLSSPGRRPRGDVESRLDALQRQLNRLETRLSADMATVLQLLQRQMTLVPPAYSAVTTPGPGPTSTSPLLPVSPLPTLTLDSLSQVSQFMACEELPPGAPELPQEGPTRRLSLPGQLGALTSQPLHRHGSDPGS

Row | SMILES | hERG current change (%, negative = inhibition) at 10uM [%]
1 | Cc1oc(C(C)(C)C)cc1C(=O)Nc1cccc(/C=C\C(=O)O)c1 | 10.3
2 | COc1ccc(C2c3[nH]c4ccccc4c3C[C@H]3C(=O)N(c4ccccc4C(=O)N4CCC[C@H]4C(=O)O)C(=O)N23)cc1 (some centres unmarked) | 3.11
3 | O=C(Nc1cccc(S(=O)(=O)C(F)F)c1)c1ccc(Cl)c(S(=O)(=O)N2CCOCC2)c1 | -2.49
4 | CCOc1ccccc1N1CCN(CC(=O)Nc2ccnn2C2CCCC2)CC1 | -19.2
5 | COc1cccc(CNc2ncnc3cc(OC)c(OC)cc23)c1 | -11.6
6 | CCOC(=O)C1CCCN(C(=O)C2CCN(S(=O)(=O)c3c(C)noc3/C=C/c3ccccc3F)CC2)C1 (centres unmarked) | 20.5
7 | O=C(O)CSc1nnnn1C1CCCCC1 | 11.1
8 | COC(=O)c1cn[nH]c1NC(=S)Nc1ccccc1C | -6.08
9 | CC1=CC(C)(C)Nc2ccc(OC(=O)C(Cc3ccccc3)N3C(=O)c4ccccc4C3=O)cc21 (centres unmarked) | 10.3
10 | CCCCC(=O)Nc1cc(OCC)c(NC(=O)c2ccccc2[N+](=O)[O-])cc1OCC | -4.27
11 | CCc1sc(C(=O)N2CCc3ccccc32)cc1C | -0.57
12 | COc1ccc(CCNC(=O)CN(CCc2ccccc2)S(C)(=O)=O)cc1 | 12.1
13 | CCSc1ccccc1C(=O)NCc1cccnc1 | 3.93
14 | N#Cc1ccc(CN2CCN(C(=O)c3cc(Cl)c4c(c3)OCCO4)CC2)cc1 | -67.7
15 | Cc1ccc2ncnc(Nc3ccccc3)c2c1 | 2.81
16 | O=[N+]([O-])c1nn(-c2ccccc2)n(O)c1=NC1CCN(Cc2ccccc2)CC1 | -58.1
17 | O=C(NC1CC2CCC(C1)N2Cc1ccccc1)c1ccccc1Cl (centres unmarked) | -40.6
18 | COc1cc(NC(=O)C2CCCCC2)c(OC)cc1NC(=O)c1ccco1 | -3.74
19 | CC(=O)N1CCN(c2ccc(NCc3ccc4c(c3)OCO4)cc2)CC1 | 3.35
20 | Cc1ccc(C2C(C(=O)c3cccs3)=C(O)C(=O)N2c2cccc(C)n2)cc1 (centres unmarked) | 2.55
21 | COCCNC(=O)C(C)OC(=O)c1cc2sccc2n1C (centres unmarked) | 4.91
22 | CC1CN(S(=O)(=O)c2ccc(F)cc2)C(C)N1C(=O)N1CCOCC1 (centres unmarked) | 15.6
23 | CC1CN(C(=O)c2ccccc2NS(=O)(=O)c2cccc([N+](=O)[O-])c2)CC(C)O1 (centres unmarked) | 22.7

Row | SMILES | hERG current change (%, negative = inhibition) at 10uM [%]
24 | Nc1cccc2c1C(=O)N(C(=O)c1ccco1)C2=O | -0.182
25 | O=C(CSc1ccccc1)Nc1cc(Cl)ccc1Oc1ccccc1 | -9.05
26 | CCOC(=O)C1=C(CC)OC(N)=C(C#N)C1c1ccc(NC(C)=O)cc1 (centres unmarked) | -3.95
27 | CCN=C1S/C(=C/c2ccc(-c3ccc(F)cc3)o2)C(=O)N1CC | 26.3
28 | CCOC(=O)c1sc(NC(=O)C2CCCCC2)nc1C | 5.94
29 | O=C(NN1C(=O)C2C3C=CC(O3)C2C1=O)c1cccc(O)c1 (centres unmarked) | -7.19
30 | O=C1NCCNC1(c1c[nH]c2ccccc12)C(F)(F)F (centres unmarked) | 8.97
31 | Cc1ccc(NC(=O)CNC(=O)c2sc3ccccc3c2Cl)nc1 | 8.63
32 | COc1ccc(NC(=O)CN2CCN(CC(=O)Nc3ccccc3Cl)CC2)cc1 | -74.1
33 | COc1ccc(C2/C(=C(/O)c3ccccc3)C(=O)C(=O)N2C)c(OC)c1 (centres unmarked) | 23.2
34 | CCc1cc(CNC(=O)c2ccc(OC3CCN(CCc4ccccc4)CC3)cc2)on1 | -75.5
35 | CCOC(=O)c1c(CN2CCOCC2)oc2ccc(OC)cc12 | -7.29
36 | COCC1CCN(C(=O)c2cc(COc3ccc(-n4cncn4)cc3)on2)CC1 | -26.5
37 | Cc1ccc2nc3nc(NCC4CCCO4)c(C(=O)NC4CCCC4)cc3c(=O)n2c1 (centres unmarked) | -75.6
38 | Nn1c(Cc2ccccc2)nc2sc3c(c2c1=O)CCC3 | -11.2
39 | CCOC(=O)c1c(-c2ccccc2)csc1NC(=O)C(C)NCCCN1CCOCC1.O=C(O)C(=O)O (centres unmarked) | -12.5
40 | CC(C)c1ccc(Nc2nnc(SC3CCOC3=O)s2)cc1 (centres unmarked) | -0.398
41 | CC(C)c1ccc(/C=C2\SC(=S)N(CC(=O)NCCCN3CCOCC3)C2=O)cc1 | 12
42 | O=C(c1ccc(F)c(S(=O)(=O)N2CCOCC2)c1)N1CCN(c2ccc(F)cc2)CC1 | -60.5
43 | Nc1ccc2oc3ncccc3c(=O)c2c1 | 8.33
44 | COc1ccccc1OC(C)C(=O)N(Cc1ccco1)C1CCS(=O)(=O)C1 (centres unmarked) | -9.12
45 | O=C(NNC(=O)C1CCCO1)c1ccc(Cl)cc1 (centres unmarked) | 0.563
46 | O=c1[nH]n(-c2ccc(F)cc2)c2ncccc12 | 6.73

Row | SMILES | hERG current change (%, negative = inhibition) at 10uM [%]
47 | COc1ccc(CNC(=O)N2CCN(S(=O)(=O)c3ccccc3)CC2)cc1 | -9.74
48 | Cc1cnc(NC(=O)CSc2nnc(Cc3ccccc3)o2)s1 | 13.4
49 | COc1ccccc1/C=N/NC(=O)c1sc(C)nc1C | 15.2
50 | COc1ccc(/C(=C/c2ccc(OC(F)F)c(OC)c2)C(=O)O)cc1OC | -3.94
51 | CCNC(=O)C/C(C)=N/NC(=O)C1CCCCC1 | 4
52 | COCCN(Cc1nc(C(c2ccccc2)c2ccccc2)no1)C(C)C | 2.93
53 | COC(=O)CNC(=O)c1c(-c2ccccc2Cl)noc1C | -5.68
54 | O=C(CC1C(=O)NCCN1CCCc1ccccc1)NCCc1ccccc1F (centres unmarked) | -1.8
55 | COc1ccc(C(=O)Nc2cccc(OC(=O)c3ccco3)c2)cc1 | 17.4
56 | NC(=O)c1ccsc1NC(=O)COC(=O)COc1ccc(C=O)cc1 | 6.23
57 | Cc1ccc2c(c1)N(C(=O)CCC(=O)N1CCCCC1)CCO2 | -14.5
58 | CC(C)COC(=O)/C(C#N)=C/c1cn(Cc2ccccc2)c2ccccc12 | 16.9
59 | Cc1ccc2nc(-c3ccccc3)cc(C(=O)NNC(=O)c3csc(N4CCOCC4)n3)c2c1 | -1.6
60 | CC(C)(C)c1cc2cccnc2n1Cc1cccc(F)c1 | -30.6
61 | COc1cccc2c1C(=O)c1ccc3ccccc3c1C2=O | 10
62 | c1ccc(Oc2cccc(OCCCn3cncn3)c2)cc1 | -22.5
63 | Cn1cc(Br)c(C(=O)NNC(=O)c2ccccc2)n1 | -2.02
64 | CC(C)C(NS(=O)(=O)c1ccccc1)C(=O)OCc1cc([N+](=O)[O-])cc2c1OCOC2 (centres unmarked) | -3.66
65 | Nc1ccc(Nc2ccccc2)cc1 | 1.98
66 | CCOC(=O)Cc1csc(NC(=S)NC(=O)C(C)(C)C)n1 | -15.4
67 | C/C(=N\NC(=O)c1c(Cl)cnn1C)c1cccc(NC(=O)C(C)C)c1 | -9.09
68 | CCn1ncc(Br)c1C(=O)Nc1ccc2c(c1)OCCO2 | 4.95
69 | Cc1cccc(NC(=O)[C@@H]2CCCN2C2=NS(=O)(=O)c3ccccc32)c1C | -17.3

Row | SMILES | hERG current change (%, negative = inhibition) at 10uM [%]
70 | CC(CN1CCOCC1)(NS(=O)(=O)c1ccccc1)c1ccccc1 (centres unmarked) | -21
71 | Cc1cccc(C)c1NC(=O)COC(=O)C1C2CC3OC(=O)C1C3C2 (centres unmarked) | 24.7
72 | COCCCNC(=O)c1ccc(N2CCOCC2)c(NS(=O)(=O)c2ccc(OC)cc2)c1 | -14.2
73 | O=C(Oc1cccc(-c2cnc3ccccc3n2)c1)c1ccco1 | -5.02
74 | COC(=O)C1C(=O)C(C(=O)c2ccc([N+](=O)[O-])cc2)C(=O)CC1(C)C (centres unmarked) | 19.8
75 | Cc1noc(C)c1COc1ncnc2ccccc12 | 31.6
76 | Cc1cc(NC(=O)CSc2nnc(CNC(=O)c3ccc(F)cc3)o2)no1 | 3.74
77 | CCN(CC)CCNC(=O)Cc1c(C(=O)O)n(CC)c2ccccc12 | 9.46
78 | O=C(CCn1nc(-c2ccccc2)c2ccccc2c1=O)NN1CCOCC1 | 24.3
79 | COc1ccc(-n2c(CN3CCC(C)CC3)nc3ccc([N+](=O)[O-])cc3c2=O)c(OC)c1 | 4.93
80 | CCOC(=O)c1c(C)nc2sc3c(=O)[nH]cnc3c2c1-c1ccc(OC)cc1 | 11.5
81 | O=C1NCCN1CCNS(=O)(=O)c1ccc(F)c(Cl)c1 | 2.05
82 | COc1ccccc1NC(=S)NCc1ccc(Cl)cc1 | -14.4
83 | C=CCc1cccc2cc(C(=O)NC)c(=O)oc12 | -5.8
84 | CCc1nc(N)c(C#N)c(-c2ccc(OC)c(OC)c2)c1C | 9.93
85 | O=C(CN1C(=O)C2C3C=CC(C3)C2C1=O)NC1CCCc2ccccc21 (centres unmarked) | -2.95
86 | O=C(NCCC1=CCCCC1)C1CC(=O)N(Cc2ccccc2)C1 (centres unmarked) | 2.53
87 | CCN(CC(=O)NCc1cccs1)C(=O)c1ccccc1F | 9.12
88 | Cc1cc(NC(=O)c2cc3nc(C4CC4)cc(C(F)(F)F)n3n2)no1 | -0.862
89 | Cc1ccc(CN2C(=O)NC(=O)C3(Cc4c(nc5ccccn5c4=O)N4CCCCCC43)C2=O)cc1 (centres unmarked) | -0.877
